The results in this text go back to the BET-seq Pho4 binding data (Le et al. 2018).

The other results are listed elsewhere or left out. These are noisy estimates, calculated here from bound and input reads.

For the assay, the target named is T1, Pho4 (S. cerevisiae) (UniProt P07270).
T1 sequence: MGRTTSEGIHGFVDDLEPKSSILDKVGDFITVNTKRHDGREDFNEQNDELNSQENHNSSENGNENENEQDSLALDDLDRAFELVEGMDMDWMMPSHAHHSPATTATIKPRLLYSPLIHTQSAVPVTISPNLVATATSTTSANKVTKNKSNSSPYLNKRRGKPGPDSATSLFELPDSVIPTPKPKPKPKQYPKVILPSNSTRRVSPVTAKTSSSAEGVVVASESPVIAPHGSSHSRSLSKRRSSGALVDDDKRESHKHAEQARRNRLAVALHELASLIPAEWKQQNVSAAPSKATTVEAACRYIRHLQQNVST
Briefly: relative binding free energy (BET-seq); higher = weaker binding. As to conditions: reference: library average.
For TGGCTCACGTGGAGTG, the “relative binding free energy” value was 0.16 kcal/mol.
Turning to GGCTACACGTGTGTAG, the “relative binding free energy” value is 0.13 kcal/mol.
In the case of GTAGACACGTGGTCAT, the “relative binding free energy” value turned out to be 0.07 kcal/mol.
The same measure for GAGGACACGTGTGTGA: 0.22 kcal/mol; for GCCTTCACGTGGTGGG: 0.27 kcal/mol.
Next, TTCTGCACGTGGATGA: 0.03 kcal/mol; TGCAGCACGTGGGTAG: -0.17 kcal/mol.
As for CTAAACACGTGTGGGG, the “relative binding free energy” value came to 0.05 kcal/mol.
As for TGGATCACGTGGGTAC, the “relative binding free energy” value stood at 0.1 kcal/mol.
For TTCGCCACGTGGAGGG, the “relative binding free energy” value is -0.13 kcal/mol.
As to CCGGGCACGTGGAAGG, the “relative binding free energy” value stood at 0.15 kcal/mol.
The same measure for AGATTCACGTGAGTGC: 0.37 kcal/mol.
Take AGGGGCACGTGGTCGG: the “relative binding free energy” value is -0.24 kcal/mol.
Consider TTTAACACGTGGGATG, for which the “relative binding free energy” value was -0.15 kcal/mol.
For the sequence GAGATCACGTGGGAAG, the “relative binding free energy” value worked out at 0.23 kcal/mol.
Regarding AATTGCACGTGGTTGA, the “relative binding free energy” value worked out at 0 kcal/mol.
For the sequence TTTGGCACGTGGTATT, the “relative binding free energy” value was -0.08 kcal/mol.
On to TCAATCACGTGTGTGT, for which the “relative binding free energy” value came out at 0.21 kcal/mol.
Next, CTGGTCACGTGTCGTG: 0.03 kcal/mol.
As for CTTGACACGTGGGGAA, the “relative binding free energy” value is -0.11 kcal/mol.
With TTGAGCACGTGGATGC, the “relative binding free energy” value was -0.08 kcal/mol.
For the sequence AAGTTCACGTGGCTGG, the “relative binding free energy” value turned out to be 0.1 kcal/mol.
AATTTCACGTGTAAAT: the “relative binding free energy” value worked out at 0.21 kcal/mol.
On to ATTCTCACGTGAAGGT, for which the “relative binding free energy” value is 0.3 kcal/mol.
The same measure for AGTGACACGTGTAGGG: -0.1 kcal/mol; for TTAGTCACGTGCTGTA: -0.05 kcal/mol.
Turning to GTTAGCACGTGTGAAA, the “relative binding free energy” value was -0.02 kcal/mol.
With GTAGTCACGTGTAGTG, the “relative binding free energy” value turned out to be 0.11 kcal/mol.
Next, GACATCACGTGAGTGG: 0.32 kcal/mol.
Take GGGTGCACGTGGGGAT: the “relative binding free energy” value is 0.03 kcal/mol.
On to GTATGCACGTGCGTTA, for which the “relative binding free energy” value is -0.01 kcal/mol.
Next, ATTCGCACGTGTGTGA: 0.07 kcal/mol; AATATCACGTGTTGAA: 0.22 kcal/mol; ACAATCACGTGTTGAG: 0.39 kcal/mol.
TAAGGCACGTGGCTGT: the “relative binding free energy” value was -0.22 kcal/mol.
Turning to AGCGTCACGTGTTAGG, the “relative binding free energy” value came out at 0.04 kcal/mol.
Take TTGTGCACGTGACTGA: the “relative binding free energy” value was determined as 0.1 kcal/mol.
As to GATGACACGTGGAGAG, the “relative binding free energy” value came to 0.16 kcal/mol.
As to GAATGCACGTGGGCTT, the “relative binding free energy” value was -0.18 kcal/mol.
Turning to GTTGTCACGTGTATAG, the “relative binding free energy” value is 0.25 kcal/mol.
As for GGTGCCACGTGTGCTG, the “relative binding free energy” value was -0.1 kcal/mol.
As for CTGTGCACGTGTGGGC, the “relative binding free energy” value came out at 0.04 kcal/mol.
Turning to ATAGTCACGTGGATTT, the “relative binding free energy” value worked out at 0.22 kcal/mol.
In the case of GGGGCCACGTGGTGCA, the “relative binding free energy” value is -0.19 kcal/mol.
For ATATTCACGTGGTTGG, the “relative binding free energy” value came out at 0.18 kcal/mol.
As for GTTGGCACGTGAGCTA, the “relative binding free energy” value turned out to be 0 kcal/mol.
With GGTTTCACGTGTGTAT, the “relative binding free energy” value was 0.24 kcal/mol.
For the sequence GGGGACACGTGTATTA, the “relative binding free energy” value was -0.09 kcal/mol.
Take TTTTGCACGTGGGTAC: the “relative binding free energy” value was -0.02 kcal/mol.
With GGCCGCACGTGTGGTC, the “relative binding free energy” value was determined as 0.16 kcal/mol.
For the sequence GGAGCCACGTGGGTTG, the “relative binding free energy” value was -0.16 kcal/mol.
Next, TTTGGCACGTGATTAG: 0.04 kcal/mol; TGTATCACGTGGTTGT: 0.14 kcal/mol; GGGTGCACGTGTTCAG: -0.03 kcal/mol.
As for CTGTTCACGTGTGGTG, the “relative binding free energy” value amounted to 0.26 kcal/mol.
As for GTATTCACGTGTTAAG, the “relative binding free energy” value was determined as 0.23 kcal/mol.
The same measure for CGCCGCACGTGGGGGT: -0.32 kcal/mol; for GATGTCACGTGGGTGA: -0.03 kcal/mol.
With CAGTGCACGTGTTGCG, the “relative binding free energy” value was determined as 0.03 kcal/mol.
For the sequence GGAACCACGTGGGGGC, the “relative binding free energy” value is -0.11 kcal/mol.
Consider TTGTGCACGTGCCAGT, for which the “relative binding free energy” value is -0.12 kcal/mol.
With TTCATCACGTGTCAGG, the “relative binding free energy” value turned out to be 0.26 kcal/mol.
As for CGCTTCACGTGGTTGT, the “relative binding free energy” value came to 0.28 kcal/mol.
For GCTGTCACGTGATAGT, the “relative binding free energy” value is 0.38 kcal/mol.
With GATAGCACGTGTCGTT, the “relative binding free energy” value is -0.03 kcal/mol.
TAATGCACGTGTATGT: the “relative binding free energy” value was 0.12 kcal/mol.
As for AGTTCCACGTGTTGAG, the “relative binding free energy” value was 0.23 kcal/mol.
With AGGTGCACGTGAGGGA, the “relative binding free energy” value was 0.25 kcal/mol.
Next, TTGAGCACGTGTGGGC: -0.14 kcal/mol; GGCTGCACGTGGGTAT: -0.17 kcal/mol.
For the sequence TGGGTCACGTGAATAA, the “relative binding free energy” value turned out to be 0.3 kcal/mol.
As to GGTAACACGTGTCGTG, the “relative binding free energy” value is -0.08 kcal/mol.
Take GTAATCACGTGAGAAT: the “relative binding free energy” value was determined as 0.55 kcal/mol.
As for AGATTCACGTGGTAAA, the “relative binding free energy” value was 0.19 kcal/mol.
As to AAGGCCACGTGGTGTG, the “relative binding free energy” value is -0.18 kcal/mol.
As for TACATCACGTGGGGTA, the “relative binding free energy” value was -0.12 kcal/mol.
As for GAGAGCACGTGCTGGG, the “relative binding free energy” value is -0.2 kcal/mol.
Regarding AGAGTCACGTGTGTAG, the “relative binding free energy” value is 0.11 kcal/mol.
As to CGGTACACGTGTGTAT, the “relative binding free energy” value was 0.09 kcal/mol.
Turning to TTTTCCACGTGTAGGT, the “relative binding free energy” value worked out at 0.05 kcal/mol.
On to TGCGCCACGTGGTGGG, for which the “relative binding free energy” value was -0.09 kcal/mol.
TTTGACACGTGGTCAT: the “relative binding free energy” value was -0.1 kcal/mol.
For GTGTGCACGTGGTGCC, the “relative binding free energy” value was -0.16 kcal/mol.
The same measure for GTTCTCACGTGATCGG: 0.47 kcal/mol.
Regarding TGGAGCACGTGGAGTA, the “relative binding free energy” value is -0.11 kcal/mol.
Regarding CGTAACACGTGAGGTT, the “relative binding free energy” value came out at 0.13 kcal/mol.
Consider CTGCTCACGTGTTTTG, for which the “relative binding free energy” value stood at 0.19 kcal/mol.
Regarding TTAGTCACGTGGCTTG, the “relative binding free energy” value stood at 0.1 kcal/mol.
In the case of GGCTACACGTGGTAGG, the “relative binding free energy” value is -0.02 kcal/mol.
Next, TGGTGCACGTGTGTTT: 0.07 kcal/mol; GTGCGCACGTGGGGTC: -0.23 kcal/mol.
For AGTAACACGTGCGGTT, the “relative binding free energy” value was -0.02 kcal/mol.
CAGGTCACGTGTGGAT: the “relative binding free energy” value was 0.24 kcal/mol.
For CGGTTCACGTGGATGA, the “relative binding free energy” value is 0.45 kcal/mol.
Regarding AGGGACACGTGTTGCT, the “relative binding free energy” value came to 0.01 kcal/mol.
On to AATTGCACGTGGTATC, for which the “relative binding free energy” value was -0.02 kcal/mol.
Next, GTAAACACGTGGTTTA: -0.05 kcal/mol; GGTGTCACGTGAGAGT: 0.36 kcal/mol.
For GTTTACACGTGGTTAG, the “relative binding free energy” value was 0.08 kcal/mol.
Take CTTAACACGTGGTTTA: the “relative binding free energy” value came out at 0.02 kcal/mol.
Next, GTAGACACGTGCAGGG: -0.02 kcal/mol; TATTGCACGTGCGGGA: 0.03 kcal/mol; GTCATCACGTGTTGTA: 0.18 kcal/mol.
Turning to TTGGGCACGTGTGAAA, the “relative binding free energy” value was 0.05 kcal/mol.
With GTATTCACGTGGTTTT, the “relative binding free energy” value came to 0.21 kcal/mol.
CAGAGCACGTGATGGT: the “relative binding free energy” value came out at 0.11 kcal/mol.
Regarding CATTTCACGTGGGCAT, the “relative binding free energy” value was determined as 0.28 kcal/mol.
Next, GCGGACACGTGTGGCG: 0.11 kcal/mol; CTTGGCACGTGGGCTG: -0.33 kcal/mol.
As for AGTTTCACGTGCTGGT, the “relative binding free energy” value came out at 0.15 kcal/mol.
For the sequence GGGGACACGTGCGGGA, the “relative binding free energy” value was -0.03 kcal/mol.
Turning to TGTTGCACGTGGACTT, the “relative binding free energy” value stood at 0.18 kcal/mol.
Next, AAGGTCACGTGCTGGG: 0.06 kcal/mol.
On to TATTTCACGTGATGTG, for which the “relative binding free energy” value was 0.33 kcal/mol.
Take CGACTCACGTGGGGAG: the “relative binding free energy” value was 0.13 kcal/mol.
